The campaign covered roughly 4,800 compounds. About 420 (8.8%) showed an effect of 50% or more. This is one part of the list.

The test system of this assay is Plasmodium falciparum. Kind of assay: Confirmatory screen in NF54 nanoGlo assay, in single point, at 2uM, 72h. Type of assay: functional, Erythrocyte. The conditions noted are these: timepoint 72 hour.
A word on the % Inhibition: it is the drop in the measured response relative to a control, in per cent. Turning to `NC(=O)CCc1ccc(S(=O)(=O)Cl)cc1`, the “% Inhibition” value is reported as 1%.

In the case of `COc1cc(CN(CC(N)=O)C(C)C)ccc1C`, the “% Inhibition” value stood at 3%.

Turning to `Cc1cc(C(=O)N[C@@H](C)c2nnc3n2CCCCC3)c(C)s1`, the “% Inhibition” value was -4%.

Turning to `C=CCNC(=O)N1CCC(c2nc(C)ccc2C(=O)N2CCCC2)CC1`, the “% Inhibition” value is -2%.

As for `CCc1cnccc1[C@H](C)NC(=O)CN1C(=O)Cc2ccccc21`, the “% Inhibition” value stood at 3%.

With `N#Cc1ccc(NC(=O)[C@](F)(OC(F)(F)C(F)(F)C(F)(F)F)C(F)(F)F)cc1`, the “% Inhibition” value is -6%.

Consider `CCN(C(=O)CN1C(=O)C(c2ccccc2)=NC12CCC(C)CC2)c1ccccc1` (stereo not given), for which the “% Inhibition” value is on record as -9%.

`O=C(Cc1cccc2ccccc12)NC(C1CC1)C1CC1`: the “% Inhibition” value was -14%.

As for `COc1ccccc1CNC(=O)c1cn(CC2(O)CCN(Cc3ccccc3)CC2)nn1`, the “% Inhibition” value is reported as -3%.

Take `COc1ccc(CNC(=O)c2cc(C(=O)C3CC3)c[nH]2)cc1`: the “% Inhibition” value is listed as -17%.

As for `Cc1cc([C@@H](C)C(=O)NC2(C(=O)O)CCCCC2)c(C)o1`, the “% Inhibition” value is -15%.

In the case of `Clc1ccccc1CNCC#Cc1ccccc1`, the “% Inhibition” value came out at 5%.

In the case of `Cc1ccc(C)n1-c1ccc(Cl)c(C(=O)N[C@H]2CCN(CC(F)(F)F)C2)c1`, the “% Inhibition” value is on record as -4%.

On to `COc1cc(Cl)cc2c1OC=CC(C(=O)NC(c1ccccc1)c1ccccc1)=C2`, for which the “% Inhibition” value is recorded as 1%.

For `Cn1cccc1C(=O)NC1CCN(c2ccc(Cl)c(C#N)n2)CC1`, the “% Inhibition” value was -5%.

Regarding `Oc1c([C@@H](c2ccccn2)N2CCCC2)ccc2cccnc12`, the “% Inhibition” value was 46%.

With `Nc1c(-c2ccccc2)nsc1C(=O)NCc1ccc(F)cc1`, the “% Inhibition” value was -2%.

For the compound `c1ccc(-c2cn3c(n2)c(-c2ccc4ccccc4n2)cc2ccccc23)cc1`, the “% Inhibition” value was 12%.

For the compound `Cc1nnc(NC(=O)c2cc(N3CCCC3)ncn2)s1`, the “% Inhibition” value is listed as 14%.

As to `Cc1noc(C)c1NC(=O)c1cc(-c2cccs2)nc2c1c(C)nn2C`, the “% Inhibition” value is 26%.

Consider `CCOc1cccc(NCc2c(N)ncnc2OC)c1`, for which the “% Inhibition” value was determined as 7%.

Consider `CC1=C(C(=O)N2CCN(C)CC2)[C@H](c2ccccc2C)n2ncnc2N1`, for which the “% Inhibition” value was -3%.

`O=C1[C@@H]2CCCN2c2ccc(S(=O)(=O)N3CCOCC3)cc2N1Cc1cccc(C(F)(F)F)c1`: the “% Inhibition” value is on record as -6%.

`CCn1cc(Cl)c(-c2nnc(-c3cccs3)o2)n1`: the “% Inhibition” value was -9%.

As for `CCN(CC(C)(C)O)C(=O)C1CCCCCC1`, the “% Inhibition” value is given as -9%.

Consider `CCN(CC)c1ncnc(N(C)Cc2ccccc2)c1N`, for which the “% Inhibition” value is 2%.

Turning to `CN(C(=O)c1ccccc1Br)C(C)(C)C`, the “% Inhibition” value was -10%.

As for `COc1ccccc1Cn1cnc2c1c(=O)n(C1CCCCC1)c(=O)n2-c1ccccc1Cl`, the “% Inhibition” value is on record as 83%.

On to `COCCO[C@H]1CCOC2(CCN(C(=O)Cc3cccc(C)c3)CC2)C1`, for which the “% Inhibition” value amounted to 5%.

Turning to `O=C1N(c2ccccc2)CN(C2CCCCC2)CN1c1nc(-c2ccccc2)cs1`, the “% Inhibition” value is -11%.

For the compound `[2H]C1([2H])NC([2H])([2H])C([2H])([2H])N(S(=O)(=O)c2ccc(OCC)c(-c3nc(=O)c4c([nH]3)c(CCC)nn4C)c2)C1([2H])[2H]`, the “% Inhibition” value is -10%.

For `O=C(CNc1cc(F)c(F)cc1F)NC(=O)NCC(F)(F)F`, the “% Inhibition” value is reported as -6%.

For `COC(=O)c1cccc(C#Cc2cccc(NC(=O)c3cnc(C)cn3)c2)c1`, the “% Inhibition” value was -19%.

For `Cc1cc(C)c(S(=O)(=O)n2ccc(-c3cccc(OCc4ccc(Cl)cc4Cl)c3)n2)c(C)c1`, the “% Inhibition” value is reported as -17%.

Turning to `O=c1cc2c(nn1Cc1ccccc1Cl)-c1ccccc1CC2`, the “% Inhibition” value is recorded as -8%.

As to `Cc1ccc(S(=O)(=O)N2CCC[C@H](C(=O)NCc3cccc(NC(=O)N4CCCC4)c3)C2)s1`, the “% Inhibition” value was -4%.

With `CCOc1ccc(C2C(C(=O)O)CCC(=O)N2C2CCCCC2)cc1` (stereo not given), the “% Inhibition” value is listed as -3%.

Turning to `Cc1cc2nccc([C@H](C)Oc3ccc(-c4ccccc4)c(F)c3)n2n1`, the “% Inhibition” value is 5%.

In the case of `Cc1cccc(N2CCN(c3ncc4c(=O)n(-c5ccc6c(c5)OCO6)c(=O)[nH]c4n3)CC2)c1`, the “% Inhibition” value was -1%.

Take `Cc1ccc(N2CCN(S(=O)(=O)c3ccccc3)[C@@H](C)C2=O)cc1F`: the “% Inhibition” value is -5%.

Regarding `COc1cc(=O)c(C(=O)NCCN2CCCCC2)nn1-c1ccc(F)cc1`, the “% Inhibition” value is -5%.

On to `O=C(c1cc2ccccc2[nH]1)N1CCc2sc(Cl)cc2C1`, for which the “% Inhibition” value was 38%.

On to `O=C(Nc1ccc(NC2CCOCC2)cc1)c1cc(F)c(O)c(F)c1`, for which the “% Inhibition” value was -13%.

With `Fc1ccc(COc2cccc(CNCCN3CCOCC3)c2)cc1`, the “% Inhibition” value was -8%.

In the case of `CCc1ccc(C(=O)N2CC[C@H](CC(=O)NCc3ccccc3)C2)cc1`, the “% Inhibition” value is recorded as -5%.

For the compound `Clc1cc(CN2CC[C@@]3(CCCOC3)C2)ccc1OCCN1CCOCC1`, the “% Inhibition” value came out at 0%.

`N#Cc1ccc(CNc2cnc3ccccc3c2)o1`: the “% Inhibition” value is recorded as -12%.

For `CS(=O)(=O)N[C@@H](Cc1ccccc1)c1cccs1`, the “% Inhibition” value stood at 0%.

Regarding `Cn1ccc(NC(=O)C(=O)c2ccc(-c3ccccc3)cc2)n1`, the “% Inhibition” value is on record as 1%.

In the case of `Fc1ccc(C2=C[C@@H](c3ccc(Cl)cc3)N3N=C(c4ccc(Cl)cc4)NC3=N2)cc1`, the “% Inhibition” value is 99%.

`CN(C)C(=O)[C@H]1CCN(c2nc3cc(C(F)(F)F)ccc3s2)C1`: the “% Inhibition” value was -6%.

Consider `CCCN(CC1CC1)C(=O)C1CCN(Cc2cccc3ccccc23)CC1`, for which the “% Inhibition” value was -12%.

On to `CCC(C)c1ccc(NC(=O)N2CC(c3ccccc3)C(c3ccc(Cl)cc3)=N2)cc1` (stereo not given), for which the “% Inhibition” value is 2%.

As to `O[C@@H](CNc1cc(-c2ccccc2)nc2ncnn12)COCC1CC1`, the “% Inhibition” value is on record as -1%.

For `O=C1CN(Cc2ccc(F)cc2)C(=O)N1[C@@H]1C[C@H]2CC[C@@H]1O2`, the “% Inhibition” value is recorded as 2%.

Consider `Cc1nnc2ccc(S(=O)(=O)Nc3cc(F)cc(F)c3)cn12`, for which the “% Inhibition” value is reported as -4%.

As to `Cc1cc(CS(=O)(=O)[C@@H](C)C(=O)NCC(C)C)on1`, the “% Inhibition” value is 1%.

With `O=C1C(c2ccccc2)=NOC12CCCCC2`, the “% Inhibition” value was -11%.

Consider `CC1=CCN(C(=O)Nc2nccs2)CC1`, for which the “% Inhibition” value is 7%.

For the compound `O=C(N[C@@H](N1CCOCC1)C(Cl)(Cl)Cl)c1ccccc1Cl`, the “% Inhibition” value was determined as 5%.

Consider `Cc1nc2ncnn2c(N2CCc3nc(N)sc3C2)c1C`, for which the “% Inhibition” value is given as -5%.

`Clc1ccc(COc2ccc(CNC3CCCCC3)cc2Br)cc1`: the “% Inhibition” value is reported as -4%.

For the compound `CCOC(=O)C1CN(S(=O)(=O)c2ccccc2)C1`, the “% Inhibition” value is recorded as -7%.

As to `COc1cccc(CC(=O)N2CCc3nc(N4CCC(C)CC4)nc(Oc4ccccc4OC)c3C2)c1`, the “% Inhibition” value was 45%.

On to `COc1ccc(Cl)cc1C(=O)N(C1CCOCC1)[C@H]1CCCN(S(C)(=O)=O)C1`, for which the “% Inhibition” value is -9%.

For the compound `Cn1ncc(C(=O)CC#N)c1C(F)(F)F`, the “% Inhibition” value is reported as -16%.

As for `COc1ccc(NC(=O)C2(N(Cc3ccccc3)C(=O)Cn3nnc4ccccc43)CCCCC2)cc1`, the “% Inhibition” value turned out to be 38%.

As to `NS(=O)(=O)c1cc(C(=O)N2CCc3ccccc3C2)cs1`, the “% Inhibition” value is recorded as -3%.

For the compound `O=C(Cn1c(Cc2ccc(Cl)cc2)nc2ccccc21)Nc1ccccc1`, the “% Inhibition” value is 14%.

With `COCC[C@@H](CO)NC(=O)NCc1cc2cc(F)ccc2s1`, the “% Inhibition” value was 5%.

With `CCOc1cc(C(c2c(C)n(C)n(-c3ccccc3)c2=O)c2c(C)n(C)n(-c3ccccc3)c2=O)ccc1OCc1ccccc1`, the “% Inhibition” value is reported as 48%.

As to `COc1ccccc1[C@H]1CCN(S(=O)(=O)c2ccccc2)C1`, the “% Inhibition” value was -4%.

For `COc1ccccc1C1CC1c1nc(CC(=O)NC2CCCC2)no1` (stereo not given), the “% Inhibition” value was -8%.

With `CC(C)(C)c1noc(OCc2cccc(C#N)c2)n1`, the “% Inhibition” value is 4%.

`COc1ccccc1N1CCN(CCC(=O)NC2CCCCC2)CC1`: the “% Inhibition” value is -2%.

In the case of `COc1ccc2c(c1)CCc1c[nH]nc1-2`, the “% Inhibition” value is on record as -7%.

As for `Cc1nnc([C@@H]2COCCN2Cc2csc(C)c2)o1`, the “% Inhibition” value is on record as 0%.

In the case of `O=C(Nc1ccc(C2(c3ccc(NC(=O)c4ccc(F)cc4)cc3)c3ccccc3C(=O)c3ccccc32)cc1)c1ccc(F)cc1`, the “% Inhibition” value is given as 67%.

As for `Cn1c(-c2ccc(Br)cc2)cn2cc(-c3ccc(Cl)cc3)nc12`, the “% Inhibition” value is listed as -5%.

As for `CCCCCC1CCC(c2ccc(-c3ccc(CC)cn3)cc2F)CC1` (stereo not given), the “% Inhibition” value is recorded as 5%.

`O=C(Nc1ccccc1Br)c1cc(-c2ccc3c(c2)CCO3)no1`: the “% Inhibition” value was -4%.

For `Cc1ccn(-c2cc(-c3cccs3)cc(-n3ccc(C)n3)n2)n1`, the “% Inhibition” value is reported as 5%.

Take `Cc1noc(Cn2c(=O)c3cc4c(cc3n(CC(=O)Nc3cccc(Cl)c3)c2=O)OCO4)n1`: the “% Inhibition” value is on record as 3%.

With `Cc1ccc(S(=O)(=O)Nc2c(S(=O)(=O)c3ccc(C)cc3)c3nc4ccccc4nc3n2C[C@H]2CCCO2)cc1`, the “% Inhibition” value is recorded as 52%.

For `O=C(N[C@H]1C[C@H]2C(=O)Nc3ccccc3C(=O)N2C1)c1cccnc1`, the “% Inhibition” value came to 3%.

With `Cc1ccccc1N1CCN(C(=O)c2csc(C(=O)NC3CCCC3)n2)CC1`, the “% Inhibition” value is -7%.

Regarding `CC(=O)c1ccc(NC(=O)c2cnc(-c3ccc4c(c3)CCO4)s2)cc1`, the “% Inhibition” value is -3%.

In the case of `Cc1cnn(CCCNC(=O)c2ccc3[nH]c4c(c3c2)CCCC4)c1`, the “% Inhibition” value is recorded as -4%.

`COc1cccc(NC(=O)c2ccccc2C(=O)OCCN2CCOCC2)c1`: the “% Inhibition” value is listed as -2%.

Turning to `Cc1c(Br)c(C(F)F)nn1CC(=O)N[C@@H](C)C(C)(C)C`, the “% Inhibition” value is given as -16%.

On to `CON(C)C[C@H](O)Cn1cc(Nc2ncnc3cc(F)ccc23)cn1`, for which the “% Inhibition” value is -2%.

As to `CC1CCCCC1N(C)C(=O)c1cc2ccccc2c(=O)[nH]1` (stereo not given), the “% Inhibition” value is reported as -9%.

`COc1ccc(-n2nc(-c3ccc(C)cc3)c3cnc4c(F)cccc4c32)cc1`: the “% Inhibition” value is on record as -10%.

For `CC[C@H]1Cn2c(C(=O)NCCN3CCCC3)cc3cccc(c32)O1`, the “% Inhibition” value was -17%.

On to `O=C(NC1CCCC1)c1nc(C(=O)N2CCN(c3cccc(Cl)c3)CC2)cs1`, for which the “% Inhibition” value is on record as -13%.

As to `Fc1cccc(Cl)c1Cn1ccc(Nc2nnc(Cn3cc(Cl)cn3)s2)n1`, the “% Inhibition” value is reported as -8%.

As for `COC(=O)[C@@](c1cc(Cl)c(O)c(Cl)c1)(N1CCOCC1)C(F)(F)F`, the “% Inhibition” value is reported as -1%.

As to `Cc1cc(C)n2c(-c3cccnc3)nnc2n1`, the “% Inhibition” value was -6%.

Take `Cc1ccc(S(=O)(=O)c2c(NS(=O)(=O)c3ccc(F)cc3)n(CCc3ccccc3)c3nc4ccccc4nc23)cc1`: the “% Inhibition” value is 100%.

Regarding `O=C1CCC(C(=O)NCC2CCCOC2)(c2ccccc2)CN1` (stereo not given), the “% Inhibition” value is -12%.

Values taken from ChEMBL document CHEMBL4888484, “Replenishing the malaria drug discovery pipeline: Screening and hit evaluation of the MMV Hit Generation Library 1 (HGL1) against asexual blood stage Plasmodium falciparum ,using a nano luciferase reporter read-out” (2022).
